In all, about 310,000 compounds went through this assay and about 14,000 (4.5%) showed an effect of 50% or more. Effects have a minus sign here. The list shows a part of the results.
Target: human ether-à-go-go-related gene (hERG) potassium channel (human, UniProt Q12809)
Experiment: primary screen, population patch clamp on CHO cells stably expressing hERG
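Also: peak tail current of the secondary pulse compared with the same well before compound.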

Sequence of human ether-à-go-go-related gene (hERG) potassium channel (Q12809 whole entry, looked up): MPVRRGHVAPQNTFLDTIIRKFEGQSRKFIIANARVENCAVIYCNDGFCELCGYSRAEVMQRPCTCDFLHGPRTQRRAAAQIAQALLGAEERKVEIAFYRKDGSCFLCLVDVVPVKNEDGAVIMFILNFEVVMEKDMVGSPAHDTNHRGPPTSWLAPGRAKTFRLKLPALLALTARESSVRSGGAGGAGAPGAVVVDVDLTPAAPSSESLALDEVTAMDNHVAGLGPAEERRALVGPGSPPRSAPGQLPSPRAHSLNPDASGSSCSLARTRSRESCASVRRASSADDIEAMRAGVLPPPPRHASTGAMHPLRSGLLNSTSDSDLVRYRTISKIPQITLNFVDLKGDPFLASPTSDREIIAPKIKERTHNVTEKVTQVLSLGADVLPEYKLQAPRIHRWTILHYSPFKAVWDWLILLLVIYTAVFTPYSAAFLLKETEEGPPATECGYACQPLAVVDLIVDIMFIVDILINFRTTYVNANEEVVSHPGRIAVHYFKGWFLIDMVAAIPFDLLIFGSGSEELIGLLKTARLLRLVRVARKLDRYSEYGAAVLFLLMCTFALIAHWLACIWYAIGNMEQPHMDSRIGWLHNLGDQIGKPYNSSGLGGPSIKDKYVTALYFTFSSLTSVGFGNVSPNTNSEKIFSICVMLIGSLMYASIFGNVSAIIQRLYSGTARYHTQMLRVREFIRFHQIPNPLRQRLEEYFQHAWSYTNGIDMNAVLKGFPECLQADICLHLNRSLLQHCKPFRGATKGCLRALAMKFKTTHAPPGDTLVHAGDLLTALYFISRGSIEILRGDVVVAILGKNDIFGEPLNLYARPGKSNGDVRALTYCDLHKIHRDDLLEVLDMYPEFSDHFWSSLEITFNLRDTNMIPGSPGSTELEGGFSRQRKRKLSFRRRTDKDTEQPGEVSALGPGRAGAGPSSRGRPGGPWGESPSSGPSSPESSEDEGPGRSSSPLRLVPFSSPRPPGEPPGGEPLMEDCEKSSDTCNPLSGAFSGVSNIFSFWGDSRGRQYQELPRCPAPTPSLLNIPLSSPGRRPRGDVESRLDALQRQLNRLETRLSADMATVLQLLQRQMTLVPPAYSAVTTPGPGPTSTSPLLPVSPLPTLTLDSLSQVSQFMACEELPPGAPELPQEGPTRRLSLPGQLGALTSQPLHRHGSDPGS

Row | SMILES | hERG current change (%, negative = inhibition) at 10uM
1 | COc1ccccc1C(C[N+](=O)[O-])c1c(N)n(C)c(=O)n(C)c1=O (centres unmarked) | -3.21%
2 | COc1ccc(OC)c(NC(=O)Nc2cc(NC(=O)Nc3cc(OC)ccc3OC)c(C)nc2C)c1 | 11.8%
3 | Cn1c(CC(=O)Nc2ccccc2C(F)(F)F)c(Sc2ccccc2)c2ccccc21 | 15.9%
4 | O=C(CNC(=O)c1ccccc1O)N/N=C/c1ccccn1 | 2.92%
5 | CCCCn1c(N)c(N(CCC)C(=O)C2CCCC2)c(=O)[nH]c1=O | -20.8%
6 | CN(CCc1ccccn1)C(=O)c1cccnc1Oc1ccc(Cl)cc1 | -19.5%
7 | COc1ccc2c(CCN)c[nH]c2c1.Cl | 11.2%
8 | Cc1ccc(SCc2ccc(C(=O)Nc3ccccc3Br)cc2)cc1 | -19%
9 | CCOC(=O)C(NS(=O)(=O)c1ccc(Br)cc1)C(C)C (centres unmarked) | -20.8%
10 | c1ccc(Cc2noc(CN3CCN(Cc4ccc5c(c4)OCO5)CC3)n2)cc1 | -28.1%
11 | CCN1CCN(S(=O)(=O)c2ccc(Cl)c(C(=O)Nc3cc(Cl)ccc3N3CCOCC3)c2)CC1 | 1.7%
12 | Cc1ccccc1OCC(O)CN1CCN(CCN2C(=O)c3cccc4cccc(c34)C2=O)CC1 (centres unmarked) | -74.2%
13 | O=C(NCCCN1CCOCC1)C(C(=O)NCCCN1CCOCC1)c1ncc(C(F)(F)F)cc1Cl | 29.2%
14 | C#CCOC(=O)CCC(=O)NCCc1ccccc1 | 8.88%
15 | Cc1ccc(N2CCN(S(=O)(=O)c3ccc4oc(=O)ccc4c3)CC2)c(C)c1 | 24.2%
16 | Cc1ccccc1OCC(=O)NNC(=O)CCc1ccccc1 | 7.35%
17 | CC1CCCCN1S(=O)(=O)c1ccc(C(=O)N(CCCN(C)C)c2nc3cc4c(cc3s2)OCO4)cc1.Cl (centres unmarked) | -81.1%
18 | COc1ccc(-c2cc(-c3ccccc3)nc(SC(C)C(=O)O)c2C#N)cc1 (centres unmarked) | 12.5%
19 | CCN(CC(=O)Nc1c(F)cccc1F)C(=O)CNC(=O)c1ccc(Br)o1 | 2.75%
20 | CC(C)Cc1nnc(NC(=O)Cc2ccccc2[N+](=O)[O-])s1 | -12%
21 | O=C(Nc1ccc(OC(F)F)c(Cl)c1)c1ccccn1 | 26.1%
22 | Cc1cc(C)cc(NC(=O)Cn2c(=O)oc3cc(S(=O)(=O)N4CC(C)CC(C)C4)ccc32)c1 (centres unmarked) | -16.5%

Row | SMILES | hERG current change (%, negative = inhibition) at 10uM
23 | Cc1ccccc1Sc1c(C#N)c(-c2ccccc2)nn1C | 10.7%
24 | Cc1cccc(-n2c(SCC(=O)NC3CCCC3)nnc2-c2ccoc2C)c1 | -83.2%
25 | COc1ccc(OC)c(NC(=O)C2CCN(S(=O)(=O)c3ccc4c(c3)CC(C)N4C(C)=O)CC2)c1 (centres unmarked) | -1.72%
26 | COc1ccc(SCC(=O)Nc2ccccc2Cl)cc1 | 15.8%
27 | Cn1nc([N+](=O)[O-])nc1Oc1ccccc1 | -5.63%
28 | CCCCn1c(=S)[nH]c2cc(S(=O)(=O)N3CCCCC3)ccc21 | 8.44%
29 | CC1=C(C(N)=O)C(c2ccc(Cl)cc2)NC(=O)N1 (centres unmarked) | -6.74%
30 | CC(=O)N(CC(O)CO)c1c(I)c(C(=O)NCC(O)CO)c(I)c(C(=O)NCC(O)CO)c1I (centres unmarked) | 4.42%
31 | O=C(CNC(=O)c1ccccc1F)NNC(=O)c1ccccc1O | 6.62%
32 | Cc1cnc(C(=O)OCC(=O)N=c2sccn2Cc2ccccc2Cl)cn1 | 10.1%
33 | COc1ccc([N+](=O)[O-])cc1NC(=O)Cc1noc2ccccc12 | 20.6%
34 | CN1C(=O)CC(N2CCN(CC(N)=O)CC2)C1=O (centres unmarked) | 22.5%
35 | Oc1ccccc1-c1nc2c3ccccc3c3ccccc3c2[nH]1 | 13.5%
36 | COc1cccc(OC)c1C(=O)Nc1c(C(=O)N2CCN(c3ccccn3)CC2)oc2ccccc12 | -61.6%
37 | S=c1[nH]nc(-c2ccc(Cl)cc2)n1/N=C/c1ccco1 | 14.3%
38 | CCOC1(C)OCC(=O)[C@]2(CCC3C4CCC5=CC(=O)C=CC5(C)C4C(=O)CC32C)O1 (some centres unmarked) | 3.93%
39 | Cc1ccc(C(=O)NC2CCCc3ccccc32)o1 (centres unmarked) | -27%
40 | N=c1c(C(=O)NCc2ccco2)cc2c(=O)n3ccccc3nc2n1Cc1ccccc1 | -79.3%
41 | CN1CCc2c(sc(NC(=O)Cc3ccccc3)c2C(N)=O)C1.Cl | -16.2%
42 | COc1cccc(CNC(=O)CCNS(=O)(=O)c2ccc(C)cc2)c1 | -6.46%
43 | C[C@H]1CCC(=O)N([C@H](CSc2ccccc2)Cc2ccccc2)CC1 | -37%
44 | Cc1cc(=O)[nH]c(SCc2cc(=O)n3nc(C)sc3n2)n1 | 5.82%

Row | SMILES | hERG current change (%, negative = inhibition) at 10uM
45 | C#CCCCc1nc2ccccc2c(=O)n1N | 17.1%
46 | O=C(CCn1c(=O)oc2ccccc21)N1CCC2(CC1)OCCO2 | 7.76%
47 | Cc1cc(C(F)(F)F)nc(NCc2ccc(F)cc2)n1 | 12.1%
48 | COC(=O)[C@@]12CCCCN1[C@H](c1ccc(-c3cccc(Cl)c3)c(OC)c1)[C@H]1C(=O)N(C)C(=O)[C@H]12.O=C(O)C(F)(F)F | -12.9%
49 | Cn1c(CCCOc2ccc(Cl)cc2Cl)nnc1SCC(=O)Nc1nccs1 | -12.2%
50 | CCCSc1ccc([C@@H]2[C@@H]3C(=O)N(C)C(=O)[C@@H]3[C@]3(C(=O)OC)CCCN23)cc1OC.O=C(O)C(F)(F)F | -2.11%
51 | O=C(/C=C/c1ccccc1Cl)N1CCN(c2ncccn2)CC1 | -32.4%
52 | CCC(CC)NC(=O)C1CCN(S(=O)(=O)c2cccs2)CC1 | 1.92%
53 | COc1ccc(-c2csc(NC(=O)C3=COCCO3)n2)c(OC)c1 | -18.9%
54 | Cc1ccc(NC(=O)CN(C)Cc2ccc(F)cc2)c([N+](=O)[O-])c1 | -17.8%
55 | CCN(CC)S(=O)(=O)c1cccc(NC(=O)CN(C)C2CCCCC2)c1 | -33.6%
56 | COc1cc(S(=O)(=O)NCC2CCCO2)c(OC)cc1Cl (centres unmarked) | 10.6%
57 | O=C(Nc1cccc2ccccc12)/C(=C/c1ccc([N+](=O)[O-])cc1)NC(=O)c1ccccc1 | -55.6%
58 | CC(Nc1ccccc1)C(=O)Nc1ccc(F)cc1 (centres unmarked) | -26.5%
59 | O=c1c2ccccc2nc(CSc2nnnn2-c2ccccc2)n1-c1ccccc1Cl | 9.41%
60 | CCc1ccc(NC(=O)CS(=O)CC(=O)NC(C)CCc2ccco2)cc1 (centres unmarked) | 9.65%
61 | Cc1ccc(C(C)NC(=O)c2ccncc2)c(C)c1 (centres unmarked) | 16.4%
62 | CCCCOCCCNC(=O)c1ccc(OC)cc1 | -6.63%
63 | CSc1nc(NS(=O)(=O)c2cc(C)c(Cl)cc2Cl)nn1C | 8.93%
64 | O=C(OCC(=O)N1CCN(C(=O)c2ccco2)CC1)c1cc(-c2ccco2)nc2ccccc12 | -69.7%
65 | Cc1ccc(NC(=O)CSc2nnc(COc3ccccc3C)o2)cc1 | 16.5%
66 | Cc1ccc(NC(=O)c2ccc([N+](=O)[O-])o2)c(C)c1 | 18.7%

Row | SMILES | hERG current change (%, negative = inhibition) at 10uM
67 | O=C1NCC(c2ccccc2)C1C(=O)N/N=C\c1ccc(-c2cccc(Cl)c2Cl)o1 (centres unmarked) | 11.3%
68 | COc1cc(/C=N/NC(=O)c2nnn(-c3nonc3N)c2C(C)C)ccc1OCc1ccccc1 | 12.1%
69 | Cc1cccc(-n2c(O)c(C=NCCN3CCNCC3)c(=O)[nH]c2=S)c1 | 13.1%
70 | O=C(CSc1nnc(CNC(=O)c2ccccc2)o1)NCc1ccccc1 | 18.4%
71 | COc1cc(/C=N/N2C(=O)C3C4c5ccccc5C(c5ccccc54)C3C2=O)ccc1O (centres unmarked) | -4.13%
72 | CCCc1c(C(=O)Nc2cc(C(C)(C)C)on2)cnn1-c1ccccc1 | 10.6%
73 | O=c1c2ccccc2nnn1CSc1nc2ccccc2c(=O)n1Cc1ccco1 | -6.44%
74 | COc1ccc(C(=O)COC(=O)c2nn(C)cc2Cl)cc1 | 16%
75 | CCOc1ccccc1NC(=O)CSc1nc(N)c(C#N)cc1C#N | 6%
76 | CCCCCN(C(=O)CCC(=O)OCC(=O)N1CCC(C)CC1)c1c(N)n(CCCC)c(=O)[nH]c1=O | 1.38%
77 | CN1CCCC1CCNc1ccc2c(=O)c3ccccc3oc2c1 (centres unmarked) | -32.5%
78 | CC(C)N1C(=S)N(Cc2ccco2)C(=O)C1CC(=O)Nc1ccccc1 (centres unmarked) | 14.9%
79 | COc1ccc(C(C[N+](=O)[O-])c2c(C)[nH]c3ccccc23)cc1OC (centres unmarked) | 26.1%
80 | Cc1nn(CCCC(=O)Nc2cccnc2Cl)c(C)c1[N+](=O)[O-] | -2.31%
81 | COC(=O)c1ccc(C)c(NC(=O)CSc2sc3c(O)cc(=O)[nH]c3c2C#N)c1 | -10.2%
82 | COc1ccccc1OCC(=O)Nc1nc(C)c(C)s1 | 8.16%
83 | Cc1noc(/C=C/c2ccco2)c1S(=O)(=O)N1CCC(C(=O)N2CCc3ccccc3C2)CC1 | -15.5%
84 | Br.CC(C)(C)C(=O)CNCC(=O)C(C)(C)C | 21.9%
85 | O=C(CN1CCCCCC1)Nc1ccccc1.O=C(O)C(=O)O | 10.8%
86 | CCOC(=O)N1CCN(C(=O)c2ccc(CNS(=O)(=O)c3ccc(OC)cc3)cc2)CC1 | -4.84%
